Experimental findings from the supplement of paper PMC11417369 are described below.

Some of the results follow.

For the test, the system named is PF3D7_0420300 AP2 domain 1 (GST-tagged). Kind of test: gcPBM binding intensity (ln(normalized median fluorescence intensity)); higher = stronger DNA binding. Summed up:
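GST-tagged P. falciparum DNA-binding domains, expressed in E. coli (about 25 μg on average), were applied for 1 h to an Agilent 4 × 180k array of primer-extended double-stranded 36-bp intergenic genomic probes plus negative controls. The binding buffer was 1× PBS with 1% milk, 0.2 mg/ml BSA, 0.5% salmon testes DNA and 0.03% Triton X-100. Bound protein was detected with Alexa488 anti-GST antibody and scanned at 488 nm. Binding intensity is the highest Masliner-normalised natural-log median intensity across replicate spots of either probe orientation.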
Take “ACTTATTTCGATATGTGTACTTAATATATATATTTA [XGTACX_site6616]”: the “gcPBM binding intensity (ln)” value is 9.45.
With “ATTTTTGTAATTATTTGTACACATTTATTTATGTGT [XGTACX_site1864]”, the “gcPBM binding intensity (ln)” value is 9.66.
Consider “TTCAAATTGTTTATATGTACTTATAAAAATTGTCTG [XGTACX_site977]”, for which the “gcPBM binding intensity (ln)” value turned out to be 9.09.
With “ATTAAAAAAAAAAAAAGTACTTATAATTATACTCGT [XGTACX_site4852]”, the “gcPBM binding intensity (ln)” value was found to be 9.11.
For “AGACCTTTAATTTGTGTGCACATAATTAGTGTACAT [GTGCAC_site9434]”, the “gcPBM binding intensity (ln)” value came out at 9.81.
For the sequence TTATATTATATATATGTGCACATTTTTAAACTTGGA, the “gcPBM binding intensity (ln)” value was 9.15.
Regarding “ACAAATAAAAATATTACACACACTATTATATTGATA [CACACA_site1494]”, the “gcPBM binding intensity (ln)” value was found to be 9.86.
Turning to “GGAAGATGAAAAATAAAGCATGTGCTGTACAAACGA [CACACA_negctrl_site1625]”, the “gcPBM binding intensity (ln)” value was determined as 9.48.
As for “AAATATTTATATGTTACACACTGTTGATAATTTTCT [CACACA_site1347]”, the “gcPBM binding intensity (ln)” value was determined as 9.57.
For “TTAATTAGAAATCATACACACATATATATATATATA [CACACA_site173]”, the “gcPBM binding intensity (ln)” value stood at 9.24.
For the sequence “CATTCAAACAAAAAAAGTACTCATCACATAATATAT [XGTACX_site1251]”, the “gcPBM binding intensity (ln)” value came to 9.44.
For “AAAAAAAAAAAAAAACTTACGATTTTAAAAAGATGG [GTGCAC_negctrl_site291]”, the “gcPBM binding intensity (ln)” value turned out to be 8.93.
Regarding “GAAATGTACAAATACGTACACACATATATATATATA [CACACA_site1541]”, the “gcPBM binding intensity (ln)” value came out at 9.54.
“GCAAAATATTTAAAATAATATATGTGTATATTTTTA [GTGCAC_negctrl_site149]”: the “gcPBM binding intensity (ln)” value came out at 8.99.
For the sequence “TTTATATTGTTTTATTGTACATATATATTTATACAT [XGTACX_site6821]”, the “gcPBM binding intensity (ln)” value was 9.51.
As to “AAATATATGAATAAATGTACGAAATGAATGGATGAA [XGTACX_site7108]”, the “gcPBM binding intensity (ln)” value came out at 9.72.
Turning to “TTATAATCTTATATATGTACATATATATATTATTAT [XGTACX_site7780]”, the “gcPBM binding intensity (ln)” value was 9.23.
Turning to “AAACATGTATTTTATTGTACACATTCATAAATCACA [XGTACX_site1420]”, the “gcPBM binding intensity (ln)” value amounted to 9.24.
With “TACATGTATGTAATATGTTTTATTTTTTTCATCTCT [XGTACX_negctrl_site79]”, the “gcPBM binding intensity (ln)” value was 9.15.
Next, “CATATTTGTTGACACACACACATATTTATATAAATA [CACACA_site7648]”: 9.83.
“TTTATATGTTTAAAATGTACATGTGGTAAAAATTTT [XGTACX_site5907]”: the “gcPBM binding intensity (ln)” value was found to be 9.07.
Next, “GGGAGGATATTACACAGTACCCAGAAAATCTACGGA [XGTACX_site2551]”: 9.02; “TATTCCTTATTATAATTCTTAAATAAAAAAAAAAAA [TGCATGCA_negctrl_site45]”: 8.48; “TAGGATTTTTAGTTTATTGTAACTATTATTTTATTT [CACACA_negctrl_site829]”: 9.35.
As for “ATATATAAACTGAAGGGTACAATGAAAAAAGAACTT [XGTACX_site7219]”, the “gcPBM binding intensity (ln)” value is 9.74.
As for “CCCATTATTGTTGGGGGTACAATTTTGAATATATAT [XGTACX_site2227]”, the “gcPBM binding intensity (ln)” value was 9.39.
For “ATATATTTATAATACACATGCAATGATATAATATAT [TGCATGCA_site20]”, the “gcPBM binding intensity (ln)” value came out at 9.24.
Next, “CATATATACATATATACACACATATATATATATATA [CACACA_site645]”: 9.39; “GTAAGAAAGAAAGGAAGTACGTAAGAAAGTAAGAAC [XGTACX_site1239]”: 9.81; TATATATATTATATAGTGCATTGAAGAAGGGGATTT: 9.22.
Consider “TTTTTTTTTCTGTGAGTGCATGTAATAAAATAAATT [GTGCAC_site9740]”, for which the “gcPBM binding intensity (ln)” value was found to be 8.98.
As to “TCATAATGAAAACAAGCACACATACATAAAATAAAA [CACACA_site9069]”, the “gcPBM binding intensity (ln)” value was found to be 9.7.
Next, “ATATGTATTAAGTGTACACATATAATGTATTTTGTT [CACACA_site4177]”: 9.4; “TTATTTACCATCTCTACACACAAAAATTGATGTAGA [CACACA_site2811]”: 9.43; “TAAATTATATTATGCACACTTAAAAATATATTTAAC [CACACA_site3512]”: 9.24.
On to “ATATGTAATAATAAATGTACGAAACATTGAACGATG [XGTACX_site1266]”, for which the “gcPBM binding intensity (ln)” value turned out to be 9.58.
Take “GAATCATCCAAAATTGCATGCAAGGAAGAAGAAAAA [TGCATGCA_site764]”: the “gcPBM binding intensity (ln)” value was determined as 9.21.
Next, “TTTTTATATATCACGTGTACATATTTATTTTTACTC [XGTACX_site8049]”: 9.3; “AAATCACCTTAAGAACGTACAAACAGAAAAAAATTA [XGTACX_site4623]”: 9.31; “TTTATTATATTTATATGTACTTATATAATATATGCA [XGTACX_site1906]”: 9.09.
On to “TTATAAATATAATATTGTACAAAATTTTAACATGTC [XGTACX_site5259]”, for which the “gcPBM binding intensity (ln)” value came out at 9.15.
With “CTTATGTGTATAAGTAGTACTAAATTAAAATAATAT [XGTACX_site2681]”, the “gcPBM binding intensity (ln)” value turned out to be 9.27.
Next, “CGTATGAAACATATATGTACTTATAAAAATATAACC [XGTACX_site7539]”: 9.4; “ATAAATAAAATTAGGTGTACTTTAATTAAAGAAAAT [XGTACX_site3319]”: 9.29; “TATACATATATAATATGTACATATATTTTTTTTTAA [XGTACX_site2938]”: 8.98.
